# From the supplement of paper PMC11417369
# ± gives the standard deviation of the averaged measurements. Some of the results follow.
# System: PfAP2-G AP2 domain (GST-tagged)
# Experiment: gcPBM binding intensity (ln(normalized median fluorescence intensity)); higher = stronger DNA binding
# Summary of the method: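 Binding intensity values are the highest Masliner-normalised natural-log median intensity among replicate spots of either probe orientation. The binding step lasted 1 h in 1× PBS with 1% milk, 0.2 mg/ml BSA, 0.5% salmon testes DNA and 0.03% Triton X-100, using GST-tagged P. falciparum DNA-binding domains expressed in E. coli on an Agilent 4 × 180k array of primer-extended double-stranded 36-bp intergenic genomic probes plus negative controls. Alexa488 anti-GST antibody and a 488 nm scan detected bound protein.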
row,Sequence,gcPBM binding intensity (ln)
1,ATATATATTAACAATACACACGTGTATACCTTATTG [CACACA_site5258],10.5 ± 0.22
2,TTCATCTTAAAATTGGGTACATAACACAAAGTATAA [XGTACX_site1894],11.3 ± 0.93
3,ATTTCTCTATCGTAATGTACATAAAAAAGAAAAACA [XGTACX_site6374],11.2 ± 0.77
4,TTATTAAATTCATAAGTGCATTTATGATTAATTTTT [GTGCAC_site9749],9.73 ± 0.16
5,ATGATAAACATGGATACACACATATAGATTGCATAT [CACACA_site6843],10.2 ± 0.11
6,TTTTTTTTTTTTTTTTGTCCGTACTGCTTTGTGTTT [XGTACX_site3687],11.1 ± 1.1
7,TTACATGTAAAAGGTACACACATTATGTATACAAAT [CACACA_site1117],11.4 ± 0.88
8,AAAATTTTTAGTTATACACACAACATAGAAAATATT [CACACA_site328],10.13 ± 0.092
9,CTATAAATATTTTATTGTACACACTTTTTATGAATG [XGTACX_site6711],11.6 ± 0.73
10,ATATATATATAGTGCACACTTAAGAATATAAAGAGG [CACACA_site1151],10.5 ± 0.28
11,AATACATACAGACACACACACACATATATATATATA [CACACA_site3558],10.3 ± 0.43
12,AAACTTAATATCGGTACACACACAAGATAAGAATTA [CACACA_site8200],11.1 ± 0.85
13,CACATACACCCATACACACACATATATATTAAGATA [CACACA_site4459],10.3 ± 0.36
14,GAACAGTTTGTTTAGTGTACTTTTTTTTTTTTTTTT [XGTACX_site8881],11.6 ± 0.89
15,AATAATTTTATCGGTACACACTGTATGCATAATATT [CACACA_site4364],11.1 ± 0.78
16,GTAAGAAACAGACACACACACATATATATATATATA [CACACA_site794],10.2 ± 0.51
17,CTTAATTTAATGAAATGTACATATAAAAATATTATA [XGTACX_site3303],11.1 ± 0.67
18,TTTGATCGATGGATTTAACACACAAAAAAAAAAAAA [CACACA_site9279],9.88 ± 0.5
19,ATGTACAAAATAAGCACACACAAAAAAAAAAAAAAT [CACACA_site2998],10.6 ± 0.61
20,TCAAAAATAAAGATCACACATATATATATATATATA [CACACA_site4381],10.3 ± 0.99
21,TCTAATTACAAAAACATACACACAAAAAAAAAAAAA [CACACA_site3783],9.76 ± 0.42
22,CCTATAAATGCATTCACACATATATATTTATATTAT [CACACA_site6086],10.1 ± 0.13

row,Sequence,gcPBM binding intensity (ln)
1,GGTATAATAATATATAGTACACACAAAAATGGAAGT [XGTACX_site7058],11.3 ± 0.76
2,ATATACACACAAAAACGTACACATATATATATGTAT [XGTACX_site2673],11.7 ± 0.86
3,AAAAAAAAAAAAAACACACACATACACCCAAAAATG [CACACA_site4223],10.4 ± 0.18
4,AAAAAAAAAAAAAGCACACATATAAATATGAATAAA [CACACA_site1393],9.83 ± 0.17
5,GATGATAATAAATTTATATATAATATTATCTTATGT [GTGCAC_negctrl_site672],9.51 ± 0.26
6,CATATTAAAAATTATTGTACATATTAATGAATATAA [XGTACX_site2734],11 ± 0.76
7,ATTTTTGCAGTAATTAAATAGACAAAATGAAAAAAA [CACACA_negctrl_site1537],10.12 ± 0.014
8,AACCAAACAAATAAACGTACAAACATTACATATATT [XGTACX_site2265],11.2 ± 0.57
9,AAAAAAAAAAAAAAAAAAAAAAAAATATATAATTTA [CACACA_negctrl_site583],11 ± 0.49
10,CAATCATGGGTTTACACACACATGCATGTGAAAATT [CACACA_site1349],10.06 ± 0.092
11,ACAATAAAGAAGTGTACACATATATCAATAAAAAAA [CACACA_site5228],11.6 ± 0.95
12,AAAATAATATTTAATACACACATAATTTTAATATAA [CACACA_site4588],9.98 ± 0.28
13,TACTTATATTATTTTATTATTAAATTTAAAACGAAA [CACACA_negctrl_site736],9.71 ± 0.25
14,ATATGTTATATAAATATATATATATATATATATATA [TGCATGCA_negctrl_site594],9.95 ± 0.67
15,TTAATATAATAGAAGTGTACACACATATTTATGTGT [XGTACX_site6672],11.5 ± 0.78
16,AATCACAACAGACACACACACAAAAAAAAAAAAAAA [CACACA_site1442],10.2 ± 0.71
17,GGTGGAAACAATTACACACACACAAAAAAAAAAAAA [CACACA_site3208],10.1 ± 0.47
18,TAATAATAAAAATAAACACACATATATCTGTATTTA [CACACA_site5572],9.49 ± 0.26
19,TATTTATAAACATACGCACACATTAAAATATATATA [CACACA_site6051],10.2 ± 0.23
20,ATATATATATATATAGTGCATAAAATAAGTTTCTAA,10.1 ± 0.37
21,AAAAAAAAAAAAAAATGTACATTTTGAAAGGATATA [XGTACX_site8217],10.9 ± 0.47
22,ATGCATTATTAGAATACACACCATACGCATATTTAT [CACACA_site4319],10.145 ± 0.007

row,Sequence,gcPBM binding intensity (ln)
1,TTTTTATAAATACACATAAATATATATATATATATA [TGCATGCA_negctrl_site393],10.1 ± 0.42
2,ACACAAAAAAATATATATATATATATATATATGTTA [CACACA_negctrl_site55],9.62 ± 0.17
3,AGAAAAAAAAAAAAATGTACAGACTTTTTCTTATAA [XGTACX_site6481],11 ± 0.55
4,AAAAAAGATAATTATGCACACACACCCACCCACCCA [CACACA_site8825],10.8 ± 0.47
5,TAAAGAAAAAGAGAATGTACATGAGAAAAGTATACT [XGTACX_site7472],11.1 ± 0.56
6,TATAAACCAATGAACACACAAACATATATATATATA [CACACA_site3168],10.2 ± 0.46
7,TCTTTTTATATTTATTGTACATAAAAAATAAAACAT [XGTACX_site4073],11.2 ± 0.82
8,ATATGTATATATAAAAGTACGCGTAAAAAAAAAAAA [XGTACX_site5377],11.7 ± 1.3
9,TTTTTTTTTCTTTCTTTCTTTTGTAAAAACCTCAAA [CACACA_negctrl_site723],9.97 ± 0.085
10,TATACACCCTAAAATACACACACACCCACCCATATA [CACACA_site9380],10.4 ± 0.2
11,TAAATATATAAATACACACACATACACAAAAAAAAA [CACACA_site5890],10.2 ± 0.14
12,AAGTTAGTATTCTGCTGTACTTCTATATATAAGTGT [XGTACX_site7678],11.6 ± 1.1
13,TTATATACATAAAAATGTACTTTTTATAAAATATAT [XGTACX_site8281],11.2 ± 1
14,TTTTCTTACATCTTATAAAAAAAAATATATATTATA [GTGCAC_negctrl_site118],9.725 ± 0.078
15,GTCTAACAACCAAACGCACACACACTAATAAAAAAA [CACACA_site8026],10.4 ± 0.48
16,ACAACATTTCTCAAATGTACATAATATAATTTATAT [XGTACX_site3224],10.8 ± 0.49
17,TATTAATTCTTAAATTTTTTTTTTTAATTCCTAGGA [CACACA_negctrl_site879],9.46
18,GAATGAATCAATGTTTGTACTCAACAAATTATAAGG [XGTACX_site5122],11.2 ± 0.76
19,GCCTTCCTTCTAAATGCACACGGAAAGTATAAATGT [CACACA_site8797],10.1
20,TATATATAATACAGTATGCACTATTTTTATTAAAAA,10 ± 0.18
21,CAATAATTTTTTAAATGTACTTTATTATAATTTAAT [XGTACX_site135],11.1 ± 0.62
22,TATTTTAAAACAAAAATATAATTTCATAAAAATATA [CACACA_negctrl_site394],9.61 ± 0.071

row,Sequence,gcPBM binding intensity (ln)
1,TAATATATATATTTATGTACATATAAATTTTCTCCT [XGTACX_site4496],11.3 ± 0.71
2,TTTTTGTAAAATAAACGTACAAAACAATTGTTCATT [XGTACX_site6537],11.3 ± 0.81
3,TATCTGTATGTATGTACACACAAAAAATGGAATATA [CACACA_site5947],11.4 ± 0.82
4,ATAAAATAATCTTATGCACACCAAAAATTTATATAA [CACACA_site8332],10.2 ± 0.12
5,ATATATCAAAAATGATGACATAAATATATTAATTTA [TGCATGCA_negctrl_site259],9.71 ± 0.12
6,AACAGATAAAAGGGTACACACATATATACATGTACA [CACACA_site225],11.6 ± 0.88
7,ATATAATAAGGTTAAGCACACATATTACATATATAA [CACACA_site9110],10 ± 0.18
8,TTGTATATATTTCCTTGTACGTAATAATTCTTATTG [XGTACX_site3938],11.3 ± 0.71
9,TTTCACACTATTTCATGTACACATAAAATTATATAT [XGTACX_site8692],11.4 ± 0.94
10,TAAATATAATAAAAGTGTACTTACACTTACATATAA [XGTACX_site1206],11.2 ± 0.88
11,TTTTATTCCGTTTCAAAATAAGAAAAAAAAAAAAAT [CACACA_negctrl_site1199],9.93 ± 0.36
12,CTTATATATACGTGCACACATATATATAAGATATAT [CACACA_site1752],10.5 ± 0.46
13,AAAAATATAAATGACACACACTTAAAAACAAAGAAA [CACACA_site4540],10.1 ± 0.11
14,ATTTAAAAAAAAAAAAATAAATAACTTGAAAAACAA [GTGCAC_negctrl_site318],9.47 ± 0.057
15,AAGGATAATAGGTACACATGCAATATTCATATATAC [TGCATGCA_site523],11.4 ± 0.93
16,TCAAAAGAAATAAAAACATGCATAAAAGTAAAAATA [TGCATGCA_site832],9.86 ± 0.16
17,AAATACTGTACAAAGGTGCATAAAAAGTGGGGCATA,10.9 ± 0.57
18,ACGTATATTTTTACATGTACATATGTAAAAAATTTT [XGTACX_site4587],11.3 ± 0.77
19,TGTTTTTCATAGTGCACACATAACCAAAAATAGTAT [CACACA_site3150],10.7 ± 0.52
20,TTATGATAATTTTGCACACACTTAGGAAAAATTATG [CACACA_site4949],10.3 ± 0.33
21,AAATAATATATATACACACACACATATATATATACA [CACACA_site554],10.03 ± 0.028
22,GAATGTTTATTATATGCATGTTATATATATGAATAT [TGCATGCA_site4],9.685 ± 0.049
